The record followed here is patent US20140155362A1, “BHQ-CONJUGATES, AND RELATED COMPOUNDS, METHODS OF MAKING THE SAME, AND METHODS OF USE THEREOF” (priority 2011, published 2014).

For this data set the following is noted: at concentrations high enough for HPLC analysis. The source says:
The quantum efficiency (Qu) for photolysis of BHQ-VAA at 365 nm, which is not detrimental to biological tissues, is similar to other BHQ-caged compounds and quite high relative to other protecting groups for biological use.^11,12 The 2-photon uncaging action cross-section (δu), a measure of the sensitivity of the compound to 2PE-mediated release of VAA is also similar to other BHQ-caged compounds and sufficiently high for biological use.

Molecules are shown by their SMILES.

Turning to `CCCCCCCCC(=O)NCc1ccc(OCc2ccc3ccc(O)c(Br)c3n2)c(OC)c1` [BHQ-VNA], the “solubility in aqueous buffers” value is reported as “poor solubility”.
In the case of `COc1cc(CNC(=O)CCCC/C=C/C(C)C)ccc1OCc1ccc2ccc(O)c(Br)c2n1` [BHQ-Capsaicin] it was “poor solubility”.
